About 14,000 (4.5%) of roughly 310,000 compounds showed an effect of 50% or more. Effects have a minus sign here. The list shows a part of the results.
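Note: peak tail current of the secondary pulse compared with the same well before compound.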

Chain of human ether-à-go-go-related gene (hERG) potassium channel (Q12809 whole entry, looked up): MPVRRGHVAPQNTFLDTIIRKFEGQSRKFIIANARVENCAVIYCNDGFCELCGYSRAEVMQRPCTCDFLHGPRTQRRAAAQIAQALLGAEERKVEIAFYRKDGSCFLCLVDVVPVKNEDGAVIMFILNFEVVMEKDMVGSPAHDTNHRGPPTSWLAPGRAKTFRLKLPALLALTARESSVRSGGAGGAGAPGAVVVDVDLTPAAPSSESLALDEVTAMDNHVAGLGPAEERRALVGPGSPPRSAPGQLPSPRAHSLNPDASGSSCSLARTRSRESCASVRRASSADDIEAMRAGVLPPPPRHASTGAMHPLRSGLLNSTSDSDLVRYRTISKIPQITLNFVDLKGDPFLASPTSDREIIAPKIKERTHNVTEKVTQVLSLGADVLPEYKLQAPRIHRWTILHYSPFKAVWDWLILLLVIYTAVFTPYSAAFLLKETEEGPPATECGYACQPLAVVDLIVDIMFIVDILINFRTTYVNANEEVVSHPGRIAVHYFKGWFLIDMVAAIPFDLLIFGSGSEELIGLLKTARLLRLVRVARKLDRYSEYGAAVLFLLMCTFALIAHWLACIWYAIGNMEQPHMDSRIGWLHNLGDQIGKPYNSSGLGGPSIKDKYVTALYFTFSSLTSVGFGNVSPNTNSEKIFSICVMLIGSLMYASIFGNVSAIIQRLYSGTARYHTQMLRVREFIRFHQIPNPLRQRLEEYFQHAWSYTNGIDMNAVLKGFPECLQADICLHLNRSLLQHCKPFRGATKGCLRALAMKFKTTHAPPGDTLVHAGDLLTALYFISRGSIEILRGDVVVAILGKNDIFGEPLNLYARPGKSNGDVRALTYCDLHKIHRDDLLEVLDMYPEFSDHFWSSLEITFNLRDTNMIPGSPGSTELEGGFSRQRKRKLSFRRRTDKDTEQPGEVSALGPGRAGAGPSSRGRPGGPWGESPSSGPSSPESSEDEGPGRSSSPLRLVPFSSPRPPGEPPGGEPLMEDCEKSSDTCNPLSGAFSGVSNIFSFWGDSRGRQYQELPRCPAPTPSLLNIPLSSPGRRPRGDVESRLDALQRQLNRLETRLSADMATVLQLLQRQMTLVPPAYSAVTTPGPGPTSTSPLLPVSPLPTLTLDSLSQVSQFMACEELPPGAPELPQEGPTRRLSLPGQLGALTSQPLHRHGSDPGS

The assay has as its target human ether-à-go-go-related gene (hERG) potassium channel (human, UniProt Q12809). In words: primary screen, population patch clamp on CHO cells stably expressing hERG.
On to `CCSc1nnc(Cc2cc(=O)[nH]c(=O)[nH]2)n1-c1cccc(C)c1`, for which the “hERG current change (%, negative = inhibition) at 10uM” value was 22.3%. The figure for `C=CCNC(=O)c1cc(-c2ccc3c(c2)OCO3)on1` is 9.19%; for `O=C(CN(Cc1ccccc1)C(=O)c1cc2c(s1)CCC2)NCc1cccs1` it is -7.13%; for `CC(=O)c1cccc(S(=O)(=O)NCCC(=O)NC2CCCCCC2)c1` it is -5.28%.

Consider `CC(C)c1ccc(N=Nc2c(O)[nH]c(=O)[nH]c2=O)cc1`, for which the “hERG current change (%, negative = inhibition) at 10uM” value turned out to be 5.66%. Turning to `CN1CCN(C(=O)CCc2ncc(C(F)(F)F)cc2Cl)CC1`, the “hERG current change (%, negative = inhibition) at 10uM” value stood at 11.7%.

With `COCCNc1cc(C)c(C#N)c2nc3ccccc3n12`, the “hERG current change (%, negative = inhibition) at 10uM” value is -35.5%. As to `O=C(Nc1nnc(-c2ccccn2)o1)c1cccc(Br)c1`, the “hERG current change (%, negative = inhibition) at 10uM” value was 7.26%. The figure for `CC(/C=C1\SC(=S)N(CCC(=O)Nc2ccc(O)cc2)C1=O)=C\c1ccccc1` is 20.6%. For `CCCCN1C(N)=NC[C@H]1Cc1ccc(O)cc1`, the “hERG current change (%, negative = inhibition) at 10uM” value stood at 13.5%. The figure for `COc1cc2c(cc1NC(=O)/C=C/c1ccccc1)oc1ccccc12` is 18.8%. On to `COc1ccccc1Nc1nc(N2CCOCC2)nc(N2CCOCC2)n1.Cl`, for which the “hERG current change (%, negative = inhibition) at 10uM” value is 16%. Consider `Fc1ccc(NC(=S)Nc2cccnc2)cc1Cl`, for which the “hERG current change (%, negative = inhibition) at 10uM” value worked out at 4.53%. With `COc1cc(C(=O)OCC(=O)N(CC(C)C)C2CCS(=O)(=O)C2)cc(OC)c1C` (centres unmarked) the figure was -5.8%; with `CC(c1ccccc1)n1cc(C(=O)NCc2ccncc2)nn1` (centres unmarked), -5.45%; with `O=C1/C(=C/c2ccc(F)cc2)SC(=S)N1CC(=O)N1CCCCC1c1cccnc1` (centres unmarked), -6.82%.

As to `CCN(Cc1ccccc1)S(=O)(=O)c1cn(C)cn1`, the “hERG current change (%, negative = inhibition) at 10uM” value turned out to be 12.6%. For `O=S(=O)(c1cccc(NC(=S)N2CCN(c3ccccc3)CC2)c1)C(F)F`, the “hERG current change (%, negative = inhibition) at 10uM” value is listed as -0.984%. The figure for `O=C(Oc1ccc([N+](=O)[O-])cc1)N1CCC(N2CCCCC2)CC1` is -65.4%; for `CC(=O)c1cc(F)c(N2CCN(C(=O)COc3ccccc3F)CC2)cc1C` it is -7.84%; for `COc1ccc(NC(=S)NCC2CCN(c3ccc(OC)cc3)C2)cc1` (centres unmarked) it is -6.31%.

`CCCN(CCO)C1CCN(CCc2ccccc2)CC1`: the “hERG current change (%, negative = inhibition) at 10uM” value was 7.14%.

In the case of `S=C1NCCc2ccc(Cl)cc2C1c1ccccc1Cl` (centres unmarked), the “hERG current change (%, negative = inhibition) at 10uM” value turned out to be 16.7%. The figure for `CCn1c(Cn2nnc(-c3ccccc3)n2)nnc1SCc1ccc(Cl)c(Cl)c1` is -1.39%; for `O=C(Nc1ccc(-c2ccccc2)cc1)c1ccc2c(c1)S(=O)(=O)c1ccccc1C2=O` it is 7.7%. In the case of `CC(C)(C)NC(=O)Cn1nnc(-c2cccs2)n1`, the “hERG current change (%, negative = inhibition) at 10uM” value was -4.07%. With `O=c1c2c(ncn1Cc1ccccc1)nc1n2CCC1` the figure was 12.8%; with `C=C(C)CN(CC)C(=O)CSc1ccc(S(=O)(=O)N2CCN(Cc3ccccc3)CC2)cn1`, -30.4%; with `O=C(NC1CCCCC1)N1CCN(C2CCCCC2)CC1`, 2.63%.

For `Nc1ccc(Nc2nc(-c3cc4ccccc4oc3=O)cs2)cc1`, the “hERG current change (%, negative = inhibition) at 10uM” value is recorded as -2.98%. With `CCOC(=O)c1ccc(-n2c(CN(CC)CC)nc3ccc([N+](=O)[O-])cc3c2=O)cc1` the figure was 2.03%; with `Cc1ccc(CNC(=O)C(=O)NCCC2CCCCN2S(=O)(=O)c2ccc(C)cc2)cc1` (centres unmarked), -11.2%; with `CCOC(=O)C1CCN(C(=O)COc2ccc(S(=O)(=O)NC(C)C)cc2Cl)CC1`, -15.9%.

On to `O=C(c1ccc2c(c1)C(=O)N(Cc1ccco1)C2O)N1CCOCC1` (centres unmarked), for which the “hERG current change (%, negative = inhibition) at 10uM” value came to 17.8%. Take `COc1ccc(Br)cc1CNCCc1cccc(Cl)c1.O=C(O)C(=O)O`: the “hERG current change (%, negative = inhibition) at 10uM” value is listed as -44.7%.

For the molecule `O=C(CSc1nncs1)Nc1ccc(Cl)cc1C(F)(F)F`, the “hERG current change (%, negative = inhibition) at 10uM” value worked out at 6.67%. With `CCCCCCCCCCCCN1C(=O)CSC1c1cccnc1` (centres unmarked), the “hERG current change (%, negative = inhibition) at 10uM” value amounted to 7.01%. With `C=CCNC(=O)CC(=O)N/N=C/c1cccc(C)c1` the figure was -0.0695%; with `CC(=O)COc1ccc2c(-c3ccccc3)cc(=O)oc2c1C`, 9.95%; with `CCOC(=O)C1=C2SCC(=O)N2C(N)=C(C#N)C1`, -4.36%. Regarding `N#Cc1ccccc1S(=O)(=O)N1CCN(C(=O)c2cn(-c3ccccc3)nc2-c2cccnc2)CC1`, the “hERG current change (%, negative = inhibition) at 10uM” value is -48%.

For `CC1Cc2ccccc2N1S(=O)(=O)c1cccc(C(=O)N2CC(=O)Nc3ccccc32)c1` (centres unmarked), the “hERG current change (%, negative = inhibition) at 10uM” value was -4.44%. On to `Cc1ccc(C)c(NC(=O)CN(C)C(=O)c2oc3c(Cl)cccc3c2C)c1`, for which the “hERG current change (%, negative = inhibition) at 10uM” value is listed as -24.4%. In the case of `Cl.Fc1ccc(Cn2nnnc2C(c2ccc(Cl)cc2)N2CCSCC2)cc1` (centres unmarked), the “hERG current change (%, negative = inhibition) at 10uM” value was -1.72%. With `O=C1c2ccccc2C(=O)N1Cc1cc(-c2ccc(Cl)cc2)no1` the figure was 7.2%; with `Cc1ccc(OCCn2cccn2)c(C)c1`, 7.47%. `Cc1ccc(OCc2cc(C(=O)N3CCc4sccc4C3)no2)cc1C`: the “hERG current change (%, negative = inhibition) at 10uM” value is on record as -0.923%.

With `Cc1ccc(C(=O)NCC(=O)OCC(=O)c2ccc(Cl)s2)cc1`, the “hERG current change (%, negative = inhibition) at 10uM” value is given as 10.6%. The figure for `COc1ccccc1N(CC(=O)NCCSc1ccccc1)S(C)(=O)=O` is -16.3%. For `CCOc1ccc(C(C)=O)cc1COC(=O)CCc1cc(OC)c(OC)c(OC)c1`, the “hERG current change (%, negative = inhibition) at 10uM” value was determined as 8.25%.

Turning to `COc1cc(Cl)ccc1OCc1cc(C(=O)N(C)C2CCOC2)no1` (centres unmarked), the “hERG current change (%, negative = inhibition) at 10uM” value stood at 5.43%. The figure for `NC(=O)NC(=O)CN1C(=O)NC2(CCOc3ccccc32)C1=O` (centres unmarked) is 18.1%; for `COc1cc(Cl)cc(CN2CCC(CCC(=O)NC3CC3)CC2)c1OC` it is -20.8%. In the case of `Cc1ccc(C)c(S(=O)(=O)N2CCN(C(=O)c3cccnc3)CC2)c1`, the “hERG current change (%, negative = inhibition) at 10uM” value is listed as 4.07%. The figure for `CCc1ccc(Nc2nnc(SCC(=O)NC(=O)c3cccn3C)s2)cc1` is 18.9%; for `CN(C)c1ccc(/C=C(/NC(=O)c2ccccc2)C(=O)NCCN2CCOCC2)cc1` it is 4.15%. The figure for `CC1CCN(C(=O)CSc2nnc(CNC(=O)c3ccc(F)cc3)o2)CC1` is -4.47%.

Turning to `COc1ccc(/C=C/C(=O)O)cc1S(=O)(=O)Nc1ccc2c(c1)OCO2`, the “hERG current change (%, negative = inhibition) at 10uM” value is 3.41%. The figure for `CN(C)c1ccc(NC(=S)NC(=O)/C=C/c2ccc(Cl)cc2)cc1` is 2.39%; for `COc1ccc2c(c1)c(=O)oc1c(C)c(OC(C)C(=O)N[C@@H](Cc3c[nH]c4ccc(O)cc34)C(=O)O)ccc12` (some centres unmarked) it is 24.1%. For the molecule `CN(C)c1ccc(/C=C/c2nc3ccccc3c(=O)[nH]2)cc1`, the “hERG current change (%, negative = inhibition) at 10uM” value is on record as 18.5%. Regarding `NC(=O)CC(NC(=O)Cc1ccc(Cl)cc1)c1ccc(NC2CCCCC2)c([N+](=O)[O-])c1` (centres unmarked), the “hERG current change (%, negative = inhibition) at 10uM” value amounted to 6.6%. On to `Cc1cc(O)c(C2=Nc3ccccc3SC(c3ccc(Cl)cc3)C2)c(=O)o1` (centres unmarked), for which the “hERG current change (%, negative = inhibition) at 10uM” value is recorded as 19.4%. For `CNc1nc2c(c(=O)[nH]c(=O)n2C)n1CCCc1ccccc1`, the “hERG current change (%, negative = inhibition) at 10uM” value amounted to 19.8%. With `COc1ccc(-c2c(C)nn3c(NC4CCCC4)cc(C)nc23)cc1OC` the figure was -17.2%; with `CC(C)(Cc1ccccc1)/[N+]([O-])=C\c1ccc(C(F)(F)F)cc1`, -22%; with `O=C(NCCCN1CCOCC1)c1nn(-c2ccccc2)c(=O)c2ccccc12`, -26.2%.

For the molecule `COC(=O)c1cc(Br)c(=O)n(Cc2ccco2)c1`, the “hERG current change (%, negative = inhibition) at 10uM” value came to 3.43%. With `Cc1ccc(OC(=O)CCNC(=O)c2ccccc2Cl)c(Br)c1` the figure was -16.3%; with `Cc1ccc(C(=O)NCC(=O)OCC(=O)Nc2ccc(Cl)cc2C(F)(F)F)cc1C`, -4.47%; with `Cc1c(F)cccc1NC(=O)CCCCCC1NC(=O)NC1C` (centres unmarked), 14.9%. The figure for `Cn1c(=O)n(C)c2cc(S(=O)(=O)N3CCCCC3)ccc21` is 10.4%; for `CCc1ccc(N(C(=O)CNC(=O)c2ccco2)C(C(=O)NC2CCCC2)c2ccncc2)cc1` (centres unmarked) it is -9.98%. With `Cc1ccccc1NC(=O)c1cccnc1` the figure was -7.59%; with `CCCNS(=O)(=O)c1ccc(CCC(=O)NCc2cccnc2)cc1`, 15.3%; with `CC(=O)C(Cc1ccccc1)NC(=O)CN1CCc2ccccc2C1` (centres unmarked), -7.4%. Turning to `COc1cccc(C2Oc3ccccc3C3CC(c4cccs4)=NN32)c1` (centres unmarked), the “hERG current change (%, negative = inhibition) at 10uM” value is 5.24%. With `Cc1oc(C(C)(C)C)cc1C(=O)NCC(=O)NCC(=O)O` the figure was -2.41%; with `Cc1ccc(-c2nnc(-c3ccc(Br)cc3)o2)o1`, 3.4%; with `Cc1cccc(NCC(O)Cn2cnc3c2c(=O)n(C)c(=O)n3C)c1` (centres unmarked), -1.49%. The figure for `COc1ccnc(Oc2ccc(C)cc2)c1C#N` is 12.1%; for `CCOc1ccc(S(=O)(=O)N(CC)CC(=O)NCc2cccnc2)cc1C` it is -23.9%. The figure for `CCOc1cccc(-c2c(C(=O)N/N=C/c3cccs3)nnn2-c2nonc2N)c1` is 6.5%; for `CCN1CCN(C(c2cc(OC)c(OC)c(OC)c2)c2nnnn2C(C)C)CC1.Cl` (centres unmarked) it is -10.6%.

As to `COc1cccc(C=Nc2ccccc2C(=O)Nc2ccccc2)c1O`, the “hERG current change (%, negative = inhibition) at 10uM” value worked out at 26.7%.

`CNC(=O)CSc1nnc(-c2cccnc2)n1-c1ccc(C)cc1`: the “hERG current change (%, negative = inhibition) at 10uM” value is on record as 13.6%. With `COc1nc(NCCc2ccc(OC)c(OC)c2)nc(OC)n1`, the “hERG current change (%, negative = inhibition) at 10uM” value was -18.3%. With `COc1ccccc1N1CCN(S(=O)(=O)c2ccc3c(c2)NC(=O)CS3)CC1`, the “hERG current change (%, negative = inhibition) at 10uM” value was determined as 2.82%.

As to `CCN(CC)c1ccc(/C=N/NC(=O)CC(C)C)cc1`, the “hERG current change (%, negative = inhibition) at 10uM” value is on record as -13.7%.

Source of the values: publication PMC4336329 (PLoS ONE, 2015).
